From the supplement of paper PMC12355420
Structures can show the parent of a compound that is named as a salt. This is one part of the list. Rule as the data show it: active = 0.5 or less and inactive = the rest. Most values come without repeats; read them as rough.

Test system: HeLa VPS33A R498W KI + HA-SDC1-FLAG
Assay: relative GAG core protein HA-SDC1 amount per cell number vs DMSO (fraction of DMSO); HeLa model of a glycosaminoglycan (GAG) storage disease; KI is knock-in and KO knock-out; SDC1 is syndecan 1; higher = more SDC1 (GAG core protein)
Settings: 50 µM; 24 h
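Also: HA-SDC1 level read out by In-Cell Western staining with an anti-HA antibody against the N-terminal tag, screening FDA-approved library drugs.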

Compound	relative GAG core protein HA-SDC1 amount per cell number
OC(c1ccccc1)(c1ccccc1)C1CCNCC1 [Azacyclonol]	inactive: 0.709
CCC12C=CCN3CC[C@@]4(c5ccc(OC)cc5N(C)[C@H]4[C@@](O)(C(=O)OC)[C@@H]1OC(C)=O)[C@@H]32 (stereo partly drawn) [Vindoline]	inactive: 0.704
CN(C)C(=O)Oc1cc(OC(=O)N(C)C)cc(C(O)CNC(C)(C)C)c1 (stereo not drawn) [Bambuterol (hydrochloride)]	inactive: 0.861
CN1C(=O)CCS(=O)(=O)C1c1ccc(Cl)cc1 (stereo not drawn) [Chlormezanone]	inactive: 0.784
CCN1CC2(OC(=O)c3ccccc3NC(C)=O)CCC(OC)C34C1C(CC23)C1(O)CC(OC)C2CC4C1(O)C2OC (stereo not drawn) [Lannaconitine]	inactive: 0.589
Cc1cc(C(C#N)c2ccc(Cl)cc2)c(Cl)cc1NC(=O)c1cc(I)cc(I)c1O (stereo not drawn) [Closantel Sodium]	active: 0.381
c1ccc2c(c1)sc1ccccc12 [Dibenzothiophene]	inactive: 0.639
Cn1c(CCCC(=O)O)nc2cc(N(CCCl)CCCl)ccc21 [Bendamustine HCl]	inactive: 0.759
NCC(O)c1ccc(O)cc1 (racemic) [(+,-)-Octopamine HCl]	inactive: 0.871
CCN(C)C(=O)Oc1cccc([C@H](C)N(C)C)c1 [Rivastigmine]	inactive: 0.656
CN[C@H]1[C@H](O)[C@H](O[C@@H]2[C@@H](O)[C@H](O[C@H]3O[C@H](C(C)O)[C@@H](O)[C@H](O)[C@H]3N)[C@@H](N)C[C@H]2N)OC[C@@]1(C)O (stereo partly drawn) [Geneticin, G-418 Sulfate]	inactive: 1.33
CN1[C@@H]2C[C@@H](OC(=O)[C@H](CO)c3ccccc3)C[C@H]1[C@@H]1O[C@@H]12 [Scopolamine hydrobromide]	inactive: 0.724
O=P1(N(CCCl)CCCl)NCCCO1 (stereo not drawn) [Cyclophosphamide monohydrate]	inactive: 1.22
CNCC(O)c1ccc(O)cc1 (stereo not drawn) [Synephrine]	inactive: 0.61
CN(C)C(=O)Oc1ccc[n+](C)c1 [Pyridostigmine Bromide]	inactive: 0.776
NCCc1ccc(O)cc1 [Tyramine]	inactive: 0.816
O=S(=O)(F)Cc1ccccc1	inactive: 0.975
C[C@]12CCC(=O)C[C@@H]1CC[C@@H]1[C@@H]2CC[C@]2(C)[C@@H](O)CC[C@@H]12 [Dihydrotestosterone(DHT)]	inactive: 0.894
CO[C@]12C[C@@H](COC(=O)c3cncc(Br)c3)CN(C)[C@@H]1Cc1cn(C)c3cccc2c13 [Nicergoline]	inactive: 0.771

Compound	relative GAG core protein HA-SDC1 amount per cell number
O=P1(N(CCCl)CCCl)NCCCO1 (stereo not drawn) [Cyclophosphamide]	inactive: 0.959
CN(C)NC(=O)CCC(=O)O [Daminozide]	inactive: 1.1
CCOC(=O)c1cncn1[C@H](C)c1ccccc1 [Etomidate hydrochloride]	inactive: 0.876
CC(=O)[C@H]1CC[C@H]2[C@@H]3CC[C@H]4C[C@H](O)CC[C@]4(C)[C@H]3CC[C@]12C [Allopregnanolone]	inactive: 0.736
C=C[C@H]1CN2CC[C@H]1C[C@H]2[C@H](O)c1ccnc2ccccc12 [Cinchonidine]	inactive: 0.733
CNCC(=O)c1ccc(O)c(O)c1 [Adrenalone HCl]	inactive: 0.639
CCN(C)C(=O)Oc1cccc([C@H](C)N(C)C)c1 [Rivastigmine Tartrate]	inactive: 0.919
CCC1=C[C@H]2CN3CCc4c([nH]c5ccccc45)[C@](C(=O)OC)(C2)[C@H]13 [Catharanthine]	active: 0.479
CCC1(c2cccc(O)c2)CCCCN(C)C1 (stereo not drawn) [Meptazinol HCl]	inactive: 0.952
COc1cc2c(cc1OC)C1CC(=O)C(CC(C)C)CN1CC2 (stereo not drawn) [Tetrabenazine]	inactive: 0.682
CN(C)C(=O)Oc1cccc([N+](C)(C)C)c1 [Neostigmine Bromide]	inactive: 1.26
COc1ccc(C(=O)N2CCCC2=O)cc1 [Aniracetam]	inactive: 1.15
CC(C)N(CCNC(=O)CN1CCCC1=O)C(C)C [Pramiracetam]	inactive: 0.864
COc1ccc2[nH]cc(CCN)c2c1 [5-Methoxytryptamine]	inactive: 0.843
COC1=C[C@@H]2[C@@H]3Cc4ccc(OC)c(O)c4[C@]2(CCN3C)CC1=O [Sinomenine Hydrochloride]	inactive: 0.833
CCC1(c2ccc(N)cc2)CCC(=O)NC1=O (stereo not drawn) [Aminoglutethimide]	inactive: 1.07
CC(C)C[C@H]1C(=O)N2CCC[C@H]2[C@]2(O)O[C@](NC(=O)[C@@H]3C=C4c5cccc6[nH]c(Br)c(c56)C[C@H]4N(C)C3)(C(C)C)C(=O)N12 [Bromocriptine mesylate]	active: 0.488
C=CC[C@]1(O)CC[C@H]2[C@@H]3CCC4=CC(=O)CCC4=C3C=C[C@@]21C [Altrenogest]	active: 0.422
CN1[C@H]2C[C@H](OC(=O)[C@H](CO)c3ccccc3)C[C@@H]1[C@@H](O)C2 [Anisodamine]	inactive: 0.944
